# Test results published in the BET-seq Pho4 binding data (Le et al. 2018).
# The other results are listed elsewhere or left out. These are noisy estimates, calculated here from bound and input reads.
# Biological target: T1, Pho4 (S. cerevisiae) (UniProt P07270)
# T1 sequence: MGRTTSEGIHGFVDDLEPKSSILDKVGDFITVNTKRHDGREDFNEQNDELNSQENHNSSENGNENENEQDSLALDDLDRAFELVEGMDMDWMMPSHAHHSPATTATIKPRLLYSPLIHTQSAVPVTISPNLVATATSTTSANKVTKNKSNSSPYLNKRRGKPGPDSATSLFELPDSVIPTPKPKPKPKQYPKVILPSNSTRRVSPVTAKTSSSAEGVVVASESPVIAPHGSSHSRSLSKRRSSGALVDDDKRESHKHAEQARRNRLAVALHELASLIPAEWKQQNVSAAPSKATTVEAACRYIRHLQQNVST
# Test: relative binding free energy (BET-seq); higher = weaker binding
# Settings: reference: library average
row,Sequence,relative binding free energy
1,TGGTTCACGTGATCGG,0.34 kcal/mol
2,TGTGGCACGTGGTATA,-0.14 kcal/mol
3,GGGGGCACGTGGTTAC,-0.06 kcal/mol
4,TTGTTCACGTGTGAGA,0.39 kcal/mol
5,TTTGGCACGTGACGTC,0.17 kcal/mol
6,TAAGGCACGTGTTTAT,-0.12 kcal/mol
7,TGGCGCACGTGTTGCT,-0.14 kcal/mol
8,GTCTGCACGTGTAGTA,-0.07 kcal/mol
9,GGGGGCACGTGCGCGT,-0.33 kcal/mol
10,ATAATCACGTGGAGGA,0.21 kcal/mol
11,GCTTTCACGTGGCGTA,0.37 kcal/mol
12,TGTAGCACGTGCTAAA,0.07 kcal/mol
13,ATGGGCACGTGAAATA,0.17 kcal/mol
14,TACCTCACGTGGTGGG,0.21 kcal/mol
15,GGGTCCACGTGGGGGT,-0.1 kcal/mol
16,GGCTGCACGTGATGTA,0.14 kcal/mol
17,TAGGTCACGTGGATAA,0.19 kcal/mol
18,TTGGTCACGTGACGTA,0.24 kcal/mol
19,CGTTTCACGTGCGGGA,0.21 kcal/mol
20,AGTTACACGTGAGTGT,0.25 kcal/mol
21,GGGATCACGTGGTTTT,0.35 kcal/mol
22,GCTAGCACGTGTGGTA,-0.06 kcal/mol
23,GTCTGCACGTGGATAG,0.19 kcal/mol
24,TTCTCCACGTGGGTGG,-0.21 kcal/mol
25,AGGGTCACGTGAGATT,0.28 kcal/mol
26,TAAAGCACGTGGGATT,-0.2 kcal/mol

row,Sequence,relative binding free energy
1,TCGTGCACGTGTTGAT,-0.15 kcal/mol
2,AGTTACACGTGGGGGC,-0.01 kcal/mol
3,GCTTTCACGTGGTGCT,0.17 kcal/mol
4,TAGGGCACGTGAAGGC,0.13 kcal/mol
5,AAGGGCACGTGGCGAT,-0.14 kcal/mol
6,TGACGCACGTGCGGAT,0.03 kcal/mol
7,CCGGTCACGTGTGGGG,0.04 kcal/mol
8,ATCTGCACGTGGTTGT,-0.02 kcal/mol
9,TTAGGCACGTGTTCAG,-0.14 kcal/mol
10,GATATCACGTGGGGCA,0 kcal/mol
11,GTTGCCACGTGGATGG,-0.06 kcal/mol
12,GCGCTCACGTGGGGGA,0.04 kcal/mol
13,TTTTGCACGTGATTTA,0.05 kcal/mol
14,AGCGGCACGTGGGAGT,-0.21 kcal/mol
15,TCGGTCACGTGCGAGT,0.2 kcal/mol
16,GGGCGCACGTGGAGAG,0.07 kcal/mol
17,AATGGCACGTGGGACT,-0.19 kcal/mol
18,TTTAGCACGTGCTTAT,-0.07 kcal/mol
19,AAGTTCACGTGCTTTA,0.24 kcal/mol
20,AGGAACACGTGTGGTG,0.08 kcal/mol
21,CTAGGCACGTGAGGAG,0.05 kcal/mol
22,TGGGACACGTGACGTC,0.29 kcal/mol
23,GATGTCACGTGTGCGA,0.19 kcal/mol
24,TTATTCACGTGAACAG,0.4 kcal/mol
25,GCTGTCACGTGGGTTA,0.1 kcal/mol
26,TTCGACACGTGTTCGT,0.11 kcal/mol

row,Sequence,relative binding free energy
1,CTGTTCACGTGCGTAG,0.14 kcal/mol
2,GATGGCACGTGGTCTT,-0.12 kcal/mol
3,CAAGCCACGTGTGGGG,0.03 kcal/mol
4,TGAATCACGTGTGAGT,0.31 kcal/mol
5,CTTGGCACGTGCGGTT,-0.16 kcal/mol
6,GTGAACACGTGGGAAT,0.1 kcal/mol
7,AGGGGCACGTGAAGTG,0.25 kcal/mol
8,ATAGCCACGTGGTTTT,-0.14 kcal/mol
9,TAAGACACGTGTGATT,0.2 kcal/mol
10,TGATTCACGTGGCGGA,0.32 kcal/mol
11,TATAGCACGTGTAGGA,-0.08 kcal/mol
12,CTGTGCACGTGTCGTA,0.15 kcal/mol
13,GATGGCACGTGGGGAG,-0.1 kcal/mol
14,CGTAGCACGTGGAGTT,-0.09 kcal/mol
15,GCGGACACGTGGGTAG,-0.09 kcal/mol
16,TCATGCACGTGGTGAT,-0.1 kcal/mol
17,GGGGGCACGTGGCTAG,-0.18 kcal/mol
18,ATGTTCACGTGGAAGC,0.33 kcal/mol
19,TGATTCACGTGGGAAT,0.23 kcal/mol
20,TTGTACACGTGCGTGC,-0.07 kcal/mol
21,GGTTCCACGTGGATGG,0.2 kcal/mol
22,TCGTTCACGTGATTTT,0.36 kcal/mol
23,AAGTGCACGTGTGGTG,-0.1 kcal/mol
24,TGTTTCACGTGGGTTT,0.19 kcal/mol
25,TGAAGCACGTGCGTAT,-0.08 kcal/mol
26,ATGAACACGTGGAGGT,0.08 kcal/mol

row,Sequence,relative binding free energy
1,TTAGTCACGTGGGGCT,-0.07 kcal/mol
2,GGTCCCACGTGGAGGG,-0.1 kcal/mol
3,TCGGGCACGTGGAGGT,-0.05 kcal/mol
4,TTTGGCACGTGGCGTA,-0.1 kcal/mol
5,TTGTTCACGTGCAGGC,0.22 kcal/mol
6,GGGTGCACGTGTCCTG,0.01 kcal/mol
7,TGATGCACGTGTCTTT,0.02 kcal/mol
8,AAAAGCACGTGGGCGG,-0.24 kcal/mol
9,GTATACACGTGGTAAT,0.1 kcal/mol
10,GAGAGCACGTGTGTTT,0.09 kcal/mol
11,TATTTCACGTGAAATG,0.29 kcal/mol
12,GTTGCCACGTGATGCG,0.09 kcal/mol
13,TTGTACACGTGAGCGG,0.42 kcal/mol
14,ATAAACACGTGTGAGG,0.07 kcal/mol
15,CTGTGCACGTGAAAGG,0.17 kcal/mol
16,TTCTGCACGTGGGGGA,0.01 kcal/mol
17,GTGCCCACGTGGGGTT,-0.16 kcal/mol
18,ATGGGCACGTGTGCGT,-0.04 kcal/mol
19,TTTGGCACGTGCTTTA,-0.11 kcal/mol
20,TTTGACACGTGTGGCA,0 kcal/mol
21,TGGTACACGTGTTACG,0.15 kcal/mol
22,TTTATCACGTGGCATT,-0.01 kcal/mol
23,GGGAACACGTGGTGCT,-0.05 kcal/mol
24,TTAGGCACGTGATGCG,-0.17 kcal/mol
25,TAATTCACGTGGTGGC,0.15 kcal/mol
26,AGTGACACGTGGTTGC,0 kcal/mol

row,Sequence,relative binding free energy
1,TCTAGCACGTGTGATA,0.21 kcal/mol
2,TCGGTCACGTGTTGAG,0.18 kcal/mol
3,GGGTTCACGTGATGCG,0.28 kcal/mol
4,ATGAGCACGTGAGATT,0.19 kcal/mol
5,GCCGGCACGTGGGGTA,-0.23 kcal/mol
6,GATGGCACGTGTGGCG,0 kcal/mol
7,ATTTTCACGTGGTCCT,0.2 kcal/mol
8,TGTGCCACGTGATTAT,-0.01 kcal/mol
9,ATGGTCACGTGTAGGG,0.19 kcal/mol
10,CTATGCACGTGGGCTT,-0.14 kcal/mol
11,CGTAGCACGTGTGTTC,0.04 kcal/mol
12,TGAGGCACGTGAACGG,0.08 kcal/mol
13,GGTCTCACGTGTAGGT,0.23 kcal/mol
14,GTAGTCACGTGGTGGG,0.1 kcal/mol
15,GTGGCCACGTGGTTTT,-0.03 kcal/mol
16,ATCCGCACGTGTGGGG,-0.14 kcal/mol
17,GGGAACACGTGTTGGC,0.17 kcal/mol
18,TGCCGCACGTGTAGGG,-0.02 kcal/mol
19,AGTTACACGTGGTTCG,0.03 kcal/mol
20,CTGCACACGTGGGGTG,-0.18 kcal/mol
21,TAGATCACGTGTTTAA,0.08 kcal/mol
22,CAGTACACGTGGTTTA,0.1 kcal/mol
23,TTTTACACGTGGATAG,0.19 kcal/mol
24,TATTTCACGTGAATAG,0.22 kcal/mol
25,CGGTGCACGTGGGCGG,-0.31 kcal/mol
26,GGCTACACGTGTGAGG,0.21 kcal/mol

row,Sequence,relative binding free energy
1,GTGCTCACGTGGGGGA,0.17 kcal/mol
2,TTTAACACGTGAAATG,0.26 kcal/mol
3,CTTCACACGTGTGGTT,0.23 kcal/mol
4,TATAGCACGTGTTAGA,-0.07 kcal/mol
5,ATCTGCACGTGGTTAG,-0.18 kcal/mol
6,GAGGGCACGTGTGATG,0.05 kcal/mol
7,TAAATCACGTGGTGTA,-0.07 kcal/mol
8,TTCATCACGTGGGTTC,0.09 kcal/mol
9,GTCGGCACGTGTTAAT,0.15 kcal/mol
10,ACTGGCACGTGTTTTA,-0.18 kcal/mol
11,TCTTGCACGTGAGTGC,0.3 kcal/mol
12,TTAAGCACGTGTTGAC,-0.01 kcal/mol
13,CTTATCACGTGGTTTG,0.05 kcal/mol
14,TGTGTCACGTGCTAGG,0.04 kcal/mol
15,TCGCTCACGTGTGGGG,0.12 kcal/mol
16,TGATACACGTGGATCG,0.17 kcal/mol
17,TTAATCACGTGGGAGT,0.1 kcal/mol
18,GTATTCACGTGGCGGT,0.23 kcal/mol
19,TAAGCCACGTGGTGTA,-0.18 kcal/mol
20,TCATTCACGTGTGAGG,0.44 kcal/mol
21,AATATCACGTGCGGGT,0.09 kcal/mol
22,TCTATCACGTGAGGTA,0.29 kcal/mol
23,AAGTTCACGTGAGTAT,0.22 kcal/mol
24,AGAGGCACGTGGGAGT,-0.24 kcal/mol
25,GATGGCACGTGGGGTA,-0.19 kcal/mol
26,ATGACCACGTGGTGTT,-0.07 kcal/mol

row,Sequence,relative binding free energy
1,TTTTCCACGTGAAAGT,0.36 kcal/mol
2,TTTATCACGTGCGTGT,0.12 kcal/mol
3,AAGACCACGTGGGGTT,-0.12 kcal/mol
4,TGGCGCACGTGGTCGG,-0.31 kcal/mol
5,GTGGTCACGTGGTTTG,0.16 kcal/mol
6,TGCTGCACGTGATGGA,0.09 kcal/mol
7,GTTTCCACGTGGTGGT,0.05 kcal/mol
8,CTGTGCACGTGTTTGA,0.04 kcal/mol
9,GTTTACACGTGGTTAT,0.1 kcal/mol
10,AAGTCCACGTGTTTTT,0.15 kcal/mol
11,TGTCACACGTGTGCAG,0.14 kcal/mol
12,CTTGTCACGTGTGGAG,0.12 kcal/mol
13,TATGTCACGTGGGTCT,-0.09 kcal/mol
14,GTCATCACGTGGGTAG,0.02 kcal/mol
15,GTAAGCACGTGTAGGT,0.05 kcal/mol
16,AACGACACGTGGTGTG,0.07 kcal/mol
17,TGAGACACGTGCGGGG,-0.19 kcal/mol
18,TTTAGCACGTGCTTTG,-0.15 kcal/mol
19,TGTACCACGTGGGTCG,-0.22 kcal/mol
20,TATGGCACGTGCGAGG,-0.14 kcal/mol
21,AGTGACACGTGGCCGG,-0.11 kcal/mol
22,CTGTTCACGTGAGTTT,0.35 kcal/mol
23,GCGGGCACGTGCCGGG,-0.32 kcal/mol
24,GAAAGCACGTGCGGTG,0.05 kcal/mol
25,AGTGGCACGTGTCTGC,-0.16 kcal/mol
26,TGAGGCACGTGTCGAT,0.02 kcal/mol

row,Sequence,relative binding free energy
1,ATTGTCACGTGACGAG,0.26 kcal/mol
2,TTACTCACGTGAGGGA,0.36 kcal/mol
3,GGTATCACGTGCGGCG,0.08 kcal/mol
4,GGGAGCACGTGGATGA,0.05 kcal/mol
5,GGGAGCACGTGTCAGT,-0.15 kcal/mol
6,CAGGTCACGTGATGCG,0.25 kcal/mol
7,TGCGCCACGTGATTGG,0.08 kcal/mol
8,TGAATCACGTGGTTAA,0.13 kcal/mol
9,GATGGCACGTGAGCTG,0.27 kcal/mol
10,TATGGCACGTGCGCGT,-0.33 kcal/mol
11,TTTAACACGTGTTTGT,-0.05 kcal/mol
12,TGGAGCACGTGATTTG,0.08 kcal/mol
13,TTCTTCACGTGTGGTC,0.3 kcal/mol
14,AGTGACACGTGTGGGC,0.08 kcal/mol
15,GTGCCCACGTGTGGTG,-0.12 kcal/mol
16,TGTTCCACGTGTTGGA,0.09 kcal/mol
17,CTAGTCACGTGGCTGT,0.06 kcal/mol
18,GGCGGCACGTGGTGGA,-0.02 kcal/mol
19,CTTTCCACGTGGGGTG,0.02 kcal/mol
20,TAGATCACGTGGCAGG,0.06 kcal/mol
21,TATTGCACGTGTGGCA,0.04 kcal/mol
22,TGGGACACGTGCAGTA,-0.03 kcal/mol
23,TGAATCACGTGGTAAT,0.17 kcal/mol
24,GTTTGCACGTGGTGCC,-0.1 kcal/mol
25,TTAAGCACGTGGGGGC,-0.21 kcal/mol
26,TCGTTCACGTGGGGGC,0.16 kcal/mol

row,Sequence,relative binding free energy
1,TGTGACACGTGCTTAG,-0.13 kcal/mol
2,CAGGTCACGTGGGAGG,0.07 kcal/mol
3,CTGATCACGTGTTTTA,0.08 kcal/mol
4,ATTAACACGTGGAGCT,0.07 kcal/mol
5,GTTGTCACGTGTGGAC,0.24 kcal/mol
6,ACTGTCACGTGGGATA,0.05 kcal/mol
7,TTGATCACGTGTTACT,0.13 kcal/mol
8,ATAGACACGTGGGGTC,-0.17 kcal/mol
9,TTTAGCACGTGCTTGT,-0.15 kcal/mol
10,AATTGCACGTGGGTCT,-0.11 kcal/mol
11,TTGGTCACGTGGGCGC,-0.04 kcal/mol
12,GCCGGCACGTGATGGG,0.06 kcal/mol
13,ACTGTCACGTGGTGGT,0.03 kcal/mol
14,GTTCGCACGTGTGAAT,0.09 kcal/mol
15,ACGGGCACGTGAAGGG,0.17 kcal/mol
16,GTGCACACGTGCTGGT,-0.04 kcal/mol
17,GAAGTCACGTGGTGAA,0.17 kcal/mol
18,GCTGGCACGTGGGGTT,-0.18 kcal/mol
19,GGCATCACGTGGTTGT,0.09 kcal/mol
20,GTGTACACGTGGCTCG,0.1 kcal/mol
21,GGTTACACGTGTGTCT,0.23 kcal/mol
22,GGGAGCACGTGCGTGA,-0.05 kcal/mol
